Test results as given in the supplement of paper PMC4967469.

Columns and labels:
Assay in all cases: Viability of human cancer cell lines after 72 h of drug (GDSC screen)
Gefitinib = compound: COc1cc2ncnc(Nc3ccc(F)c(Cl)c3)c2cc1OCCCN1CCOCC1 [Gefitinib]; conditions: top dose 0.5 µM
Method: (§1)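 Human cancer cell lines in 384-well plates, medium with 10% serum, drug for 72 h over a 256-fold dose range (nine 2-fold or five 4-fold steps up to the top dose). Adherent lines were fixed and stained with the nucleic acid dye Syto60, suspension lines read with resazurin; signal relative to control wells, capped at 0 and 100%. One two-parameter sigmoid per drug and line, fitted in a mixed model over all curves with the slope shared within a line.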

WHI-P97 = compound: COc1cc2ncnc(Nc3cc(Br)c(O)c(Br)c3)c2cc1OC [WHI-P97]; conditions: top dose 10.24 µM; top dose inferred
Method: as §1

QL-XI-92 = compound: C=CC(=O)Nc1cc(NC(=O)c2ccc(C)c(NC(=O)c3ccno3)c2)cc(C(F)(F)F)c1 [QL-XI-92]; conditions: top dose 10.24 µM; top dose inferred
Method: as §1

Vinorelbine = compound: CCC1=C[C@@H]2CN(C1)Cc1c([nH]c3ccccc13)[C@@](C(=O)OC)(c1cc3c(cc1OC)N(C)[C@H]1[C@@](O)(C(=O)OC)[C@H](OC(C)=O)[C@]4(CC)C=CCN5CC[C@]31[C@@H]54)C2 [Vinorelbine]; conditions: top dose 0.064 µM; top dose inferred
Method: as §1

EHT 1864 = compound: O=c1cc(CN2CCOCC2)occ1OCCCCCSc1ccnc2cc(C(F)(F)F)ccc12 [EHT 1864]; conditions: top dose 10 µM; top dose inferred
Method: as §1

NU-7441 = compound: O=c1cc(N2CCOCC2)oc2c(-c3cccc4c3sc3ccccc34)cccc12 [NU-7441]; conditions: top dose 2 µM; top dose inferred
Method: as §1

XL-184 = compound: COc1cc2nccc(Oc3ccc(NC(=O)C4(C(=O)Nc5ccc(F)cc5)CC4)cc3)c2cc1OC [XL-184]; conditions: top dose 5.12 µM; top dose inferred
Method: as §1

AG-014699 = compound: CNCc1ccc(-c2[nH]c3cc(F)cc4c3c2CCNC4=O)cc1 [AG-014699]; conditions: top dose 5 µM; top dose inferred
Method: as §1

Phenformin = compound: N=C(N)NC(=N)NCCc1ccccc1 [Phenformin]; conditions: top dose 4000 µM; top dose inferred
Method: as §1

Cell Line	AUC (Gefitinib)	IC50 (Gefitinib)	AUC (WHI-P97)	IC50 (WHI-P97)	AUC (QL-XI-92)	IC50 (QL-XI-92)	AUC (Vinorelbine)	IC50 (Vinorelbine)	AUC (EHT 1864)	IC50 (EHT 1864)	AUC (NU-7441)	IC50 (NU-7441)	AUC (XL-184)	IC50 (XL-184)	AUC (AG-014699)	IC50 (AG-014699)	AUC (Phenformin)	IC50 (Phenformin)
A2780 (ovary, semi-adherent)	0.973	> 0.5 µM	0.904	> 10.2 µM	0.893	> 10.2 µM	0.62	0.00868 µM	0.812	5.61 µM	0.981	> 2 µM	0.813	2.88 µM	0.759	1.8 µM		
CAL-62 (thyroid, adherent)	0.943	> 0.5 µM	0.987	> 10.2 µM	0.987	> 10.2 µM	0.626	0.00873 µM	0.902	> 10 µM	0.968	> 2 µM	0.988	> 5.12 µM	0.947	> 5 µM		
CAPAN-1 (pancreas, adherent)	0.987	> 0.5 µM	0.987	> 10.2 µM	0.976	> 10.2 µM	0.69	0.0146 µM	0.934	> 10 µM	0.987	> 2 µM	0.946	> 5.12 µM			0.849	3530 µM
CHSA0011 (chondrosarcoma, adherent)	0.971	> 0.5 µM	0.962	> 10.2 µM	0.972	> 10.2 µM	0.932	> 0.064 µM	0.95	> 10 µM	0.969	> 2 µM	0.925	> 5.12 µM			0.805	3070 µM
COLO-783 (melanoma, adherent)	0.985	> 0.5 µM	0.98	> 10.2 µM	0.987	> 10.2 µM	0.987	> 0.064 µM	0.969	> 10 µM	0.962	> 2 µM	0.99	> 5.12 µM			0.989	> 4000 µM
Caov-4 (ovary, adherent)	0.98	> 0.5 µM	0.962	> 10.2 µM	0.98	> 10.2 µM	0.966	> 0.064 µM	0.976	> 10 µM	0.98	> 2 µM	0.886	> 5.12 µM	0.98	> 5 µM		
EBC-1 (lung squamous cell carcinoma, adherent)	0.979	> 0.5 µM	0.923	> 10.2 µM	0.933	> 10.2 µM	0.582	0.00692 µM	0.947	> 10 µM	0.943	> 2 µM			0.957	> 5 µM	0.88	> 4000 µM
G-292 Clone A141B1 (osteosarcoma, adherent)	0.934	> 0.5 µM	0.963	> 10.2 µM	0.939	> 10.2 µM	0.832	> 0.064 µM	0.831	> 10 µM	0.941	> 2 µM	0.837	> 5.12 µM			0.802	3620 µM
H290 (mesothelioma, adherent)	0.963	> 0.5 µM			0.886	9.64 µM	0.803	0.0287 µM	0.989	> 10 µM	0.969	> 2 µM			0.989	> 5 µM		
HCC1500 (breast, adherent)	0.969	> 0.5 µM	0.983	> 10.2 µM	0.931	> 10.2 µM	0.749	0.0214 µM	0.891	> 10 µM	0.966	> 2 µM	0.988	> 5.12 µM	0.988	> 5 µM		
HCC-78 (lung adenocarcinoma, adherent)	0.98	> 0.5 µM	0.983	> 10.2 µM	0.964	> 10.2 µM	0.78	0.0313 µM			0.972	> 2 µM	0.888	> 5.12 µM			0.983	> 4000 µM
HL-60 (acute myeloid leukaemia, suspension)	0.98	> 0.5 µM	0.975	> 10.2 µM	0.918	> 10.2 µM	0.682	0.0121 µM	0.982	> 10 µM	0.896	> 2 µM			0.99	> 5 µM	0.448	183 µM
HSC-2 (head and neck, adherent)	0.756	0.16 µM	0.976	> 10.2 µM	0.984	> 10.2 µM	0.414	0.00238 µM	0.948	> 10 µM	0.943	> 2 µM	0.955	> 5.12 µM			0.862	3010 µM
Hep 3B2_1-7 (liver, adherent)	0.987	> 0.5 µM	0.987	> 10.2 µM	0.986	> 10.2 µM	0.677	0.0124 µM	0.901	> 10 µM	0.944	> 2 µM			0.986	> 5 µM	0.849	2990 µM
Hs746T (stomach, adherent)	0.98	> 0.5 µM	0.981	> 10.2 µM	0.951	> 10.2 µM	0.946	> 0.064 µM	0.952	> 10 µM	0.931	> 2 µM			0.981	> 5 µM	0.974	> 4000 µM
HuH-7 (liver, adherent)	0.978	> 0.5 µM	0.984	> 10.2 µM	0.977	> 10.2 µM	0.776	0.0254 µM	0.94	> 10 µM	0.907	> 2 µM			0.977	> 5 µM	0.816	2210 µM

IC50 is the fitted dose that halves viability relative to control wells, and lower means more sensitive; a limit (>, <) means that the fit lies beyond the doses tested. AUC sums up the same curve from the lowest dose to the 256-fold higher top dose; it is 1 without any effect and falls as sensitivity rises. For some of these results: Any top dose called inferred was derived from the fitted curves, not read from the paper.
